{
  "source": "paper PMC4336329",
  "about": "(PLoS ONE, 2015)",
  "note": "Hit rate of the full screen: of about 310,000 compounds, about 14,000 (4.5%) showed an effect of 50% or more. The effect is printed as a negative number. This is one part of the list.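 Also: peak tail current of the secondary pulse compared with the same well before compound.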",
  "data": [
    {"target": "human ether-à-go-go-related gene (hERG) potassium channel (human, UniProt Q12809)", "sequence (Q12809 whole entry, looked up)": "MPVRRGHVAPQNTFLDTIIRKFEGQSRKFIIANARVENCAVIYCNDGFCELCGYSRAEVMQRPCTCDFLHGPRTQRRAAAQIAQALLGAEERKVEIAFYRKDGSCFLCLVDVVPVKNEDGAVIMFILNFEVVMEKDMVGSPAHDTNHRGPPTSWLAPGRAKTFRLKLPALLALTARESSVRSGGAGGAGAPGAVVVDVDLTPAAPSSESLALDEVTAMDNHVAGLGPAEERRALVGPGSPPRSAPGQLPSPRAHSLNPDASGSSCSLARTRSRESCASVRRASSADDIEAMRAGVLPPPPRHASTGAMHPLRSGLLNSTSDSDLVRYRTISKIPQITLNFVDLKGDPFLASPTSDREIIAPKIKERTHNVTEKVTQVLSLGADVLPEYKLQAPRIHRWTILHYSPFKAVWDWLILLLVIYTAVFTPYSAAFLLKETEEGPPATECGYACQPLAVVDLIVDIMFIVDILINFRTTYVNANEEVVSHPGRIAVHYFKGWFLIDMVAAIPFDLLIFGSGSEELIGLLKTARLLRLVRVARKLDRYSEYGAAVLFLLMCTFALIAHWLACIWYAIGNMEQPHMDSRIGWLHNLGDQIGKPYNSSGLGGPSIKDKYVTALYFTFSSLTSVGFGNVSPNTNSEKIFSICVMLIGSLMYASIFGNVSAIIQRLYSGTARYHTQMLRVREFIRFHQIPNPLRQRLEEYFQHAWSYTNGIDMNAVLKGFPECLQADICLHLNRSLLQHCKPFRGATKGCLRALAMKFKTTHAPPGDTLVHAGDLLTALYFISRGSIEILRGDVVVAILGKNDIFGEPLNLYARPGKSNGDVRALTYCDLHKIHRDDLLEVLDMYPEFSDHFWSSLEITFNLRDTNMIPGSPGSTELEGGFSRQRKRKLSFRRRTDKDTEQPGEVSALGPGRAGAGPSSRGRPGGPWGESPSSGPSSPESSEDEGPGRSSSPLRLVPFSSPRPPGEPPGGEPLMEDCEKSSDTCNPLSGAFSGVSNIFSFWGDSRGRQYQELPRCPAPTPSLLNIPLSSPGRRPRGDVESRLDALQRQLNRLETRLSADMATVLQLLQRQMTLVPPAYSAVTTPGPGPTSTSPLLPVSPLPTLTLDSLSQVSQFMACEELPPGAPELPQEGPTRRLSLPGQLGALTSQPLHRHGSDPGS", "test": "primary screen, population patch clamp on CHO cells stably expressing hERG", "units": {"hERG current change (%, negative = inhibition) at 10uM": "%"}, "values": [
      {"smiles": "Cc1cc(C)c(NC(=O)CNC(=O)COC(=O)CNC(=O)c2ccc(Cl)cc2Cl)c(C)c1", "hERG current change (%, negative = inhibition) at 10uM": 13.3},
      {"smiles": "CN(C)c1ccnc(Oc2ccc(Cl)cc2)c1C#N", "hERG current change (%, negative = inhibition) at 10uM": -2.31},
      {"smiles": "COc1ccc(COC(=O)C2=C(C)NC(=O)NC2c2ccc(OC)cc2)cc1", "note": "(centres unmarked)", "hERG current change (%, negative = inhibition) at 10uM": 14.4},
      {"smiles": "Cc1ccc(S(=O)(=O)NC2(C(=O)O)CCCCC2)cc1", "hERG current change (%, negative = inhibition) at 10uM": 4.84},
      {"smiles": "O=C(O)c1cccc(NC(=S)NCc2ccccc2)c1", "hERG current change (%, negative = inhibition) at 10uM": 18.8},
      {"smiles": "Cc1ccc(S(=O)(=O)N2CCC3(CC2)OCCO3)cc1", "hERG current change (%, negative = inhibition) at 10uM": 7.41},
      {"smiles": "COc1ccc(/C=N\\NC(=O)C2=NNC(=O)C2C)cc1", "note": "(centres unmarked)", "hERG current change (%, negative = inhibition) at 10uM": 9.52},
      {"smiles": "COc1ccccc1C(=O)N(CN1CCCC1=O)c1cccc(Cl)c1", "hERG current change (%, negative = inhibition) at 10uM": -9.61},
      {"smiles": "O=C(N=C1SC2CS(=O)(=O)CC2N1c1ccc(F)cc1)C1CCCCC1", "note": "(centres unmarked)", "hERG current change (%, negative = inhibition) at 10uM": 10.1},
      {"smiles": "O=C(N/N=C/c1ccc(Cl)s1)c1ccccc1[N+](=O)[O-]", "hERG current change (%, negative = inhibition) at 10uM": -4.42},
      {"smiles": "O=C(COC(=O)c1cc(-c2ccc(Cl)s2)nc2ccccc12)NCc1ccco1", "hERG current change (%, negative = inhibition) at 10uM": -7.28},
      {"smiles": "CCOC(=O)NN1C(=O)c2ccccc2NC1(C)C", "hERG current change (%, negative = inhibition) at 10uM": 4.93},
      {"smiles": "COc1ccc(/C=C2\\CCC(C3CCCC3)C2=O)cc1OC", "note": "(centres unmarked)", "hERG current change (%, negative = inhibition) at 10uM": 13.2},
      {"smiles": "CC(NC(=O)c1ccccc1Cl)NC(=O)c1ccccc1Cl", "hERG current change (%, negative = inhibition) at 10uM": 6.85},
      {"smiles": "O=C(CSc1nnc(Nc2ccccc2)s1)NCc1cccs1", "hERG current change (%, negative = inhibition) at 10uM": 22},
      {"smiles": "C/C(N)=C(/C#N)C(=O)CSc1nnc(-c2ccccc2)n1C", "hERG current change (%, negative = inhibition) at 10uM": 13.1},
      {"smiles": "Cc1ccc(-c2nnc(NCCCO)c3ccccc23)cc1", "hERG current change (%, negative = inhibition) at 10uM": -38.5},
      {"smiles": "CC(C)Cn1c2c(c(O)c(C(=O)Nc3nc4ccccc4s3)c1=O)CCCC2", "hERG current change (%, negative = inhibition) at 10uM": 8.7},
      {"smiles": "Cc1ccc2oc(=O)c3cc(C(=O)NCCCN4C(C)CCCC4C)sc3c2c1", "note": "(centres unmarked)", "hERG current change (%, negative = inhibition) at 10uM": -61.6},
      {"smiles": "CCc1ccc(NC(=O)Cn2c3[n+](c4c(F)c(F)ccc42)CCCCC3)cc1.[I-]", "hERG current change (%, negative = inhibition) at 10uM": 11.4},
      {"smiles": "CC(=O)Nc1ccc(NC(=O)CN2C(=O)COc3ccc(S(=O)(=O)N4CCCCC4)cc32)cc1", "hERG current change (%, negative = inhibition) at 10uM": 0.668},
      {"smiles": "O=C(NCCCN1CCCC1=O)c1cccc(S(=O)(=O)N2CCCCC2)c1", "hERG current change (%, negative = inhibition) at 10uM": -5.62},
      {"smiles": "O=C(CC1OC(=O)c2ccccc21)Nc1cccc(S(=O)(=O)N2CCCCCC2)c1", "note": "(centres unmarked)", "hERG current change (%, negative = inhibition) at 10uM": -48},
      {"smiles": "O=C(NCCOc1ccccc1)C1CCC(=O)N(CCCN2CCOCC2)C1", "note": "(centres unmarked)", "hERG current change (%, negative = inhibition) at 10uM": 12.7},
      {"smiles": "COc1ccc(CN(C(=O)c2snc(C(N)=O)c2N)C(C(=O)NC2CCCC2)c2cc(OC)ccc2OC)cc1", "note": "(centres unmarked)", "hERG current change (%, negative = inhibition) at 10uM": -3.67},
      {"smiles": "COc1ccc(OC(=O)COc2ccccc2C)cc1", "hERG current change (%, negative = inhibition) at 10uM": 5.55},
      {"smiles": "Cc1ccc(-c2nn(CCC#N)cc2C=C(C#N)C#N)cc1", "hERG current change (%, negative = inhibition) at 10uM": 7.08},
      {"smiles": "CCN1C(=O)CSc2ccc(C(=O)NCc3ccc(OC)cc3)cc21", "hERG current change (%, negative = inhibition) at 10uM": -4.81},
      {"smiles": "CCc1ccc(-c2nn(-c3ccccc3)cc2C2SCC(=O)N2Cc2ccco2)cc1", "note": "(centres unmarked)", "hERG current change (%, negative = inhibition) at 10uM": 16.5},
      {"smiles": "CCNS(=O)(=O)c1ccc(NC(=O)Cn2nc(C(F)(F)F)cc2C)cc1", "hERG current change (%, negative = inhibition) at 10uM": -0.324},
      {"smiles": "CN1CCN(Cc2ccc(Sc3ccc(Cl)cc3)c([N+](=O)[O-])c2)CC1", "hERG current change (%, negative = inhibition) at 10uM": -80.4},
      {"smiles": "CC(=O)Nc1c(C)cc(S(C)(=O)=O)cc1C", "hERG current change (%, negative = inhibition) at 10uM": 14.5},
      {"smiles": "COc1ccc(CNC(=O)C/C(C)=N/NC(=O)C(c2ccccc2)c2ccccc2)cc1", "hERG current change (%, negative = inhibition) at 10uM": -29.3},
      {"smiles": "O=C(CC1OC(=O)c2ccccc21)NNC(=O)c1ccc(F)cc1", "note": "(centres unmarked)", "hERG current change (%, negative = inhibition) at 10uM": -25.1},
      {"smiles": "Cc1cccc(OS(=O)(=O)NC(=O)OCC2CCCN3CCCCC23)c1", "note": "(centres unmarked)", "hERG current change (%, negative = inhibition) at 10uM": 15.1},
      {"smiles": "CN1CCN(c2nc(N)cc(=O)[nH]2)CC1", "hERG current change (%, negative = inhibition) at 10uM": 15.2},
      {"smiles": "COC(=O)CC(=O)CSc1nc(C)cc(C)c1C#N", "hERG current change (%, negative = inhibition) at 10uM": 22.9},
      {"smiles": "COc1ccc([N+](=O)[O-])cc1NC(=O)Cc1ccccc1Cl", "hERG current change (%, negative = inhibition) at 10uM": 5.67},
      {"smiles": "CC1CCN(S(=O)(=O)c2cccc(C(=O)Nc3ccccn3)c2)CC1", "hERG current change (%, negative = inhibition) at 10uM": -22.1},
      {"smiles": "CCOc1ccc2[nH]c(=O)c(CN(Cc3cccnc3)C(=O)Nc3ccccc3OC)cc2c1", "hERG current change (%, negative = inhibition) at 10uM": -6.63},
      {"smiles": "COc1cccc(N(CC(=O)Nc2cccc(C(C)=O)c2)S(C)(=O)=O)c1", "hERG current change (%, negative = inhibition) at 10uM": -5.01},
      {"smiles": "C=CCn1c(COc2ccc(CC)cc2)nnc1SC/C(O)=C(\\C#N)c1nc2ccccc2[nH]1", "hERG current change (%, negative = inhibition) at 10uM": 2.23},
      {"smiles": "CCOc1ccc(S(=O)(=O)N(CC)CC(=O)N2CCCC2)cc1C", "hERG current change (%, negative = inhibition) at 10uM": -6.28},
      {"smiles": "O=C(c1ccc2oc(CCCc3ccccc3)nc2c1)N1CCCC(CCCO)C1", "note": "(centres unmarked)", "hERG current change (%, negative = inhibition) at 10uM": -32.2}
    ]}
  ]
}
